A short description of this series: soluble fraction after stress (log2 fold change); higher = more stays soluble; pooled small domains, quantitative proteomics. The settings on record: stress: pH 4. An outline of the steps: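 Following acid stress at pH 4, the amount of each small protein domain still soluble was measured in pooled custom libraries by high-throughput quantitative proteomics. Its fold change, on a log2 scale, is higher when more of the domain stayed soluble. This fold change is taken as a measure of aggregation propensity.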

On to “HMKVDQVDDAELLDLVEMEIRELLSSYDFPGDDVPIVKGSALAAVEDRDEAIGKNSIIELMSKVDEYIPAP”, for which the “soluble fraction (log2)” value was -1.38.
Regarding “HMYDTKLTTQDAADYLGISRPTLEKLLEQGDIPFTRVGRHRRVMLSDLQHYAVTQHDKNMQIFDAIAA”, the “soluble fraction (log2)” value is 0.0865.
Next, “HMAKGTVKWFNETKGYGFIAPEGGKKDVFVHITALERAGLRGLKDGQAVNFDIEAGRDGRESAINITL”: -0.88; “HMQPVNIEPRSPLHAQVLLDRANFSPGQIDGEVGSNQRRAVSGLQAARGLKVTGELDEETWQALQAD”: -0.285; “HMAMINTVQPILVEGLSKKNNDTLFGRTENNRVVNFEGSRSLIGNFVNIKITEALSNSLRGIIQS”: -0.315.
As for “HMGMVGTNHRILVDGVSRKNAGHLSGRTENNRVVNFAAGEASIGDFRDVRITEALPNSLRAEVLG”, the “soluble fraction (log2)” value worked out at 0.0742.
Next, “HMSASHYDVLNLKKTASETEIKKAYRKLAVEYHPDKVMNLGEEYQKAAKEKFQKVQEAYEQIKLERGI”: -0.0234; “HMVDDEELLDLVEMEVRELLDDYEFPGDDTPIIRGSALMALEDPAGPWGDKIVELFEAVDSYIP”: -1.48; “HMDEEMLELVEMEMRELLSFYDFDGDNTPIIRGSALGALNGVPQWEDKVMELMDAVDTWIPLP”: -1.46.

The record behind these values is the domain aggregation screens of Martell et al. (2025).
